According to the supplement of paper PMC11417369:
This is one part of the list.

Test system: PfHDP1 homeodomain (GST-tagged)
Test: gcPBM binding intensity (ln(normalized median fluorescence intensity)); higher = stronger DNA binding
Outline: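 GST-tagged P. falciparum DNA-binding domains, expressed in E. coli (about 25 μg on average), were applied for 1 h to an Agilent 4 × 180k array of primer-extended double-stranded 36-bp intergenic genomic probes plus negative controls. The binding buffer was 1× PBS with 1% milk, 0.2 mg/ml BSA, 0.5% salmon testes DNA and 0.03% Triton X-100. Bound protein was detected with Alexa488 anti-GST antibody and scanned at 488 nm. Binding intensity is the highest Masliner-normalised natural-log median intensity across replicate spots of either probe orientation.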

Sequence	gcPBM binding intensity (ln)
AAAATGAAAATGAAAATGAAAATGGGAAAATGTCAA [TGCATGCA_negctrl_site488]	6.62
TATAATTATATGTATACACACACATACATTTACATA [CACACA_site9061]	7.18
CATATATATCGTAATGCACACATGTAATTTCATAAT [CACACA_site811]	10.7
TTATATATAAGTTTATTCATTTTTTTTTTTTTTTTT [XGTACX_negctrl_site573]	6.42
TAAATAAAAAAGAATACACACAGCATGCATAAATAT [CACACA_site237]	7.43
TATTGTTTTTTTTACTGTACACAAGTAAATGAAAAA [XGTACX_site790]	6.27
AAAAAATTCAAAAGGTGTACAACATTATATTATTCC [XGTACX_site5118]	7.1
TCTGTATATTATTCAAGTACACAATATAAATATAAA [XGTACX_site7241]	6.29
GATAACTTTTTTCTCACACACAAATATTTTAATCAT [CACACA_site7685]	6.67
AAAAATAAAAAAATAAATACGTATACATATATAATA [TGCATGCA_negctrl_site551]	6.47
GAACAAATTAAATAGGTGCATTAACATGTTCTATTT [GTGCAC_site9729]	10.1
GTATATAATTAAAGTTGTACCCTTAAAAAAGGGAAA [XGTACX_site7278]	5.81
ATAAGCTCATGCAGGTGTACACAAAAAGAAAAAAAA [XGTACX_site2433]	6.64
ATAATGAAAAGGAACATACACACCCCATATAAATAT [CACACA_site3442]	7.39
GGAATAGTAATATATACACACAAATACATATATATA [CACACA_site67]	6.78
TTTATTTTTTAATGATGTACTATTTATCCAGAAAAG [XGTACX_site7750]	6.19
ACTTATACAAAATGTGCATGTTATATTTACAATAAT [TGCATGCA_site108]	8.39
AAATTAAATGTAAGCACACATAAATTATACTCATAT [CACACA_site5782]	6.54
ACATATAAATAAATAAATATATATATATATATATAT [GTGCAC_negctrl_site378]	9.32

Sequence	gcPBM binding intensity (ln)
TTTTTATAACTATATTATATAACTTTTGTACGAACT [CACACA_negctrl_site1423]	6.3
TATTTACACCTAATCACAAATAAAATAAAATCAAAT [CACACA_negctrl_site531]	6.77
GATAAGGTATTCAAATGTACAAAATGTTTTATATAA [XGTACX_site6863]	6.35
TAAATCAAAATAATTTAACACACAATTTTAATACTG [CACACA_site8744]	6.1
TTTTCCAATTTAAAAGCATGCATCTGTTTTTTTTTT [TGCATGCA_site482]	6.2
AGAGGTAGAGAGAAAACATGCATAATGATTTTCATA [TGCATGCA_site958]	6.1
TAGAGGTATAAAATATGTACTTATAAAAACATGAAT [XGTACX_site8916]	6.71
TATATGATATAATATACACACATACAGATATATATA [CACACA_site4440]	6.59
AAATTATTAAGTGATATAATATTCTATAGATGGGGA [CACACA_negctrl_site168]	6.76
AAAAAAAGTAAATGTTGTACTATAATATGTAATATA [XGTACX_site7966]	6.37
AAATAACACTAATGATGTACTCAACTATTTATAATT [XGTACX_site8183]	6.37
ATATACATATCCATATTTATATCTATATTTAAAACA [CACACA_negctrl_site747]	5.96
TACATATATATTATATGTACTTATATTTTTATAATA [XGTACX_site3452]	6.09
AACCACATACATATAACACACATATACAATCTATAT [CACACA_site1987]	6.84
TAAAAAAAATATTTTTGTACGAATTAAATTTTTTTT [XGTACX_site4838]	5.98
TATGAAATTTTAATTACACACAGGAAAATAAAATGG [CACACA_site4935]	6.45
ACATATTTTTAATACACACTCAAAAAAGTACTTAAC [CACACA_site3014]	6.7
TTCTTAAAAGGAAAGGTGCAACTTTATCATTTTCTT	10.2
TAAATACATAAATACACACACATATATTATATATAT [CACACA_site4310]	7.09

Sequence	gcPBM binding intensity (ln)
ATATTAACTATCATAACACACACAGTAGACATATTT [CACACA_site6941]	6.75
TATCATATATAAAGAGGTACGTAAGAATAGAAAATT [XGTACX_site798]	7.27
ATATATATTATATAAGTGCATAATATTCTTTCTTTT	8.58
TTTTTCATTTCTGCATTTATTTATAAATAAATATTT [CACACA_negctrl_site368]	7.21
TTCAAATATAAATACACACACATAGCTACAAAATAA [CACACA_site4172]	7.14
TACACGCATGGACACACACACACACCCATATATATA [CACACA_site4522]	7.11
TATAAGAGAATATATACACACAAAAATATATACAGT [CACACA_site1668]	6.97
TATATATTTTGTGTCTGTACACATATTATTAATTCC [XGTACX_site7507]	6.25
TTTTTTTATCAATGTTGTACTTTTTTTTTTTTCCAT [XGTACX_site8864]	6.18
TACAATAAGGATAAGTGTACATATGTGCATACATAT [XGTACX_site7188]	10.6
AAAAATTATAGAAAAGTGCAATACATGTTACACCAT	8.42
CATATAGCATAATCATGTACACATACAACAAATAGG [XGTACX_site1589]	6.86
AATATATTTTTTGGTTGTACAGAGATCTTTGTAGAA [XGTACX_site1707]	6.39
ATTCTCCAAGTTTGATGTACACATATGACGACGGCG [XGTACX_site4912]	6.36
TATAATAATTATACATGTACACATTATTTGGATAAA [XGTACX_site5552]	6.4
TTTTTATATTTAATGTGTCCTCACTTAAAAGGATGA [XGTACX_site2744]	6.13
TATAATCAATATGTAACACACAAAAGTTATATACTT [CACACA_site7368]	6.24
CTTTTTTGTTAAAGTGTGCGCAATAGTTATAGACTT [GTGCAC_site9670]	7.62
AAAATAAAATAAAAGTGTACGTTTTAAGAACATTGA [XGTACX_site2382]	6.27
